PubChem BioAssay AID1963576 (National Center for Advancing Translational Sciences (NCATS), 2024)
Hit rate of the full screen: of about 46,000 compounds, about 60 (0.1%) were called active. About 3% were inconclusive and are not listed. Calls come from the whole dose curve; as a rule, active = well fitted inhibition curve with a large enough effect; inconclusive = small, poorly fitted or top-dose-only effect; inactive = no such curve, though single readings can be large or run the other way. This is one part of the list.

Experiment: Primary qHTS assay for Inhibitors of ovarian cancer metastasis using an organotypic tumor microenvironment (TME) model.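 For activity change, negative = inhibition: plate controls were DMSO wells for no effect and tomatine positive control wells for full effect.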 Note: nearly all actives have a fitted effect of over 65% in size.
Conditions: SKOV3ip1-GFP adhesion/invasion on 3D omental model, fluorescence; series mostly up to 45.8 µM; activity change, negative = inhibition: at the top concentration
How it was run: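 Adhesion/invasion was scored as fixed GFP-labeled SKOV3ip1 cell counts (488/509 nm), normalized to DMSO and tomatine controls. Cancer cells in serum-free medium, with four compound doses (0.36-46 umol/L), sat 2 hr at RT then 16 hr at 37 C on a 48 hr fibroblast/mesothelial/ECM culture.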

Activity change, negative = inhibition, inactive:
CCOc1ccc(S(=O)(=O)c2cn(Cc3cc(C)ccc3C)c3ccc(OCC)cc3c2=O)cc1 0.974%
COc1ccccc1NC(=O)C1=C(C)Nc2nc(SCc3ccccc3)nn2C1c1cccnc1 (centres undefined) 1.38%
O=C(Nc1ccccc1)C1CCN(S(=O)(=O)c2ccc3[nH]c4c(c3c2)CCCCC4)CC1 0.964%
CCc1c(C)sc2c1CCN(C(=O)Nc1ccc(F)c(Cl)c1)C2c1ccc(F)cc1 (centres undefined) -20.5%
COc1ccccc1CNC(=O)c1cnc(N2CCCC2)nc1C -5.3%
CCCOC(=O)c1ccc(Cn2nnc3sc4c(c3c2=O)CCC(C)C4)cc1 (centres undefined) 0.641%
CCOc1ccc(NC(=O)c2cc(S(=O)(=O)N3CCOCC3)ccc2F)cc1 20.8%
COc1ccccc1N(CC(=O)NCCSCc1cccc(Cl)c1)S(C)(=O)=O -14.1%
O=C(C1CCC(Cn2c(=O)c3sccc3n(Cc3ccccc3F)c2=O)CC1)N1CCCCC1 (centres undefined) 5.59%
Cn1c(=O)c2c(c3ccccc31)OC(=O)CC2c1cccc(F)c1 (centres undefined) 7.84%
CCOc1ccc(NC(=O)c2cc3c(=O)n(Cc4cccs4)ccc3nc2C)cc1 2.81%
CC(C)NC(=O)C1CCN(C(=O)c2cc3sccc3n2Cc2ccc(Cl)cc2)CC1 -2.66%
Cc1cc(C)c(NC(=O)c2ncoc2-c2ccco2)c(C)c1 -4.2%
CCCCNC(=O)C1CCN(S(=O)(=O)c2ccc3c(ccn3CC)c2)CC1 18.2%
CCN(CC)CCSc1nnc2c3cc(F)ccc3n(C)c2n1 -26.1%
O=S(=O)(NCCc1csc2nc(-c3ccccc3)nn12)c1ccc(Cl)s1 -6.63%
COc1ccc2c(CNC3CCCCCC3)c(C(=O)O)n(Cc3cccc(F)c3)c2c1 -0.148%
Cc1ccc(-c2noc(CN(C(=O)COc3cc(C)cc(C)c3C)C(C)C)n2)cc1 -2.46%
COc1ccc(-c2noc(CNS(=O)(=O)c3ccc(Br)cc3)n2)cc1OC 3.28%
CCOC(=O)c1c(C)[nH]c(CCC(=O)Nc2ccc(Cl)cc2C)c1C -9.83%
Cc1ccc(CNC(=O)c2nnn(CC(=O)Nc3cc(C)ccc3C)c2N)cc1 -1.03%
CSCCC(NS(=O)(=O)c1ccc2c(c1)oc(=O)n2C)C(=O)N1CCN(c2cccc(Cl)c2)CC1 (centres undefined) -7.52%
COc1ccc(CCNC(=O)c2cnc3sc(N4CCCC4)nn3c2=O)cc1OC 11.9%
CCOc1ccc(-c2cc(-c3nc(-c4cc(OC)c(OC)c(OC)c4)no3)[nH]n2)cc1 -3.12%
COc1cc(NC(=O)c2cc3ccccn3n2)cc(OC)c1OC 0.939%
CCc1ccccc1NS(=O)(=O)c1ccc(NC(=O)N2CCCC2)cc1 14.4%
Cc1ccc(CN(Cc2ccco2)C(=O)COc2ccc(Cl)cc2)o1 -3.2%
CCOC(=O)c1cc(-c2ccc(F)cc2)n(CCC(=O)NCCc2ccc(C)cc2)c1C -8.08%
Fc1ccc(-c2noc3ncnc(NCC4CCN(Cc5ccc(Cl)cc5)CC4)c23)cc1 -11.9%
Cc1cc2nc3c(=O)[nH]c(=O)nc-3n(CC(O)C(O)C(O)CO)c2cc1C (centres undefined) -6.38%
Cc1ccc2cc3c(N)nn(C(=O)c4cccc(F)c4)c3nc2c1 -32.9%
Cc1cc2c(cc3c(SCc4nc(-c5ccccc5)oc4C)nnc(C)n32)o1 2.83%
Cc1ccc(N2CCN(S(=O)(=O)c3ccc(F)c(C(=O)Nc4ccc(Cl)cc4Cl)c3)CC2C)cc1 (centres undefined) 19.6%
Cc1cc(C)cc(NC(=O)Cn2nnc(-c3nc(-c4ccncc4)no3)c2N)c1 -6.25%
CCn1ccc2c(OCC(=O)Nc3ccccc3C)cccc2c1=O -2.87%
COc1cccc(CNC(=O)c2cc(C)nc3c2c(C)nn3-c2cccc(F)c2)c1 -5.82%
COc1ccc(S(=O)(=O)Nc2ccc3c(c2)CCCN3S(=O)(=O)c2ccc(C)cc2)cc1F 4.34%
COc1ccc(N2CCN(C(=O)c3cccc(NC(=O)c4nsc5ccccc45)c3)CC2)cc1 0.164%
CCC(CC)C(=O)Nc1nc2c(s1)CC(C)CC2 (centres undefined) 1.17%
COc1ccc(-n2nnnc2C2CCN(S(=O)(=O)c3ccc(C(C)(C)C)cc3)CC2)cc1 3.56%
Cc1ccc(S(=O)(=O)NCCc2cn3ccsc3n2)cc1 4.15%
COc1cc(-c2nn(C3CCC(N4CCN(C(C)=O)CC4)CC3)c3ncnc(N)c23)ccc1NC(=O)c1cc2ccccc2n1C (centres undefined) 0.781%
O=C(COCc1cc(-c2ccc3c(c2)OCO3)on1)N1CCN(c2ccccc2)CC1 -9.99%
CCc1ccccc1NC(=O)C1CCCN(c2ncnc3onc(C)c23)C1 (centres undefined) 11.3%
COc1ccc(CNC(=O)c2ccc(CS(=O)Cc3ccccc3Cl)o2)cc1 (centres undefined) -9.39%
COc1ccc(NC(=O)CCc2nnc3n(CC(C)C)c(=O)c4ccccc4n23)cc1 -4.27%
Cc1ccc(NC(=O)Cn2ccn(-c3ccc(F)c(F)c3)c(=O)c2=O)cc1C -5.68%
Cc1ccc(-n2nc(C(=O)N3CCN(c4cc(Cl)ccc4C)CC3)c3c4ccccc4n(C)c3c2=O)cc1 -5.7%
O=C(c1ccc(CSc2nc3ccncc3n2Cc2ccccc2)cc1)N1CCCCCC1 9%
O=c1c(S(=O)(=O)c2cccc(Cl)c2)cn(Cc2ccccc2)c2cc(N3CCOCC3)c(F)cc12 2.35%
Cc1cccc(NC(=O)C(NS(=O)(=O)c2ccc3c(c2)oc(=O)n3C)C(C)C)c1 (centres undefined) 0.209%
CC(C)c1ccc(OCC(=O)N(Cc2ccc(N(C)C)cc2)C2CCS(=O)(=O)C2)cc1 (centres undefined) 3.09%
C=Cc1ccc(CSc2nc(-c3ccc(C)cc3)nc3c2Cc2c(CO)cnc(C)c2O3)cc1 -3.55%
CCc1ccc(NC(=O)Cn2c(=O)n(Cc3ccco3)c(=O)c3cccnc32)cc1 -8.39%
Cc1cc(C)c2nc(N(Cc3cccnc3)C(=O)CCOc3ccccc3)sc2c1 7.33%
CCOc1ccc(S(=O)(=O)Nc2nc3ccccc3nc2Nc2ccc(OC)cc2)cc1 -3.94%
Cc1ccc2nc(-c3cccnc3)c(Nc3ccccc3C)n2c1 -2.61%
O=C1NC(=O)C(=Cc2ccc(-c3ccc(F)cc3)o2)S1 -18.4%
CCOC(=O)c1c(SCC(=O)Nc2cc(Cl)cc(Cl)c2)nc(=O)[nH]c1C 17.6%
Cc1cccc(-n2ncc3c(N4CCN(c5ccccc5)CC4)ncnc32)c1 2.99%
CCN(CC)c1ccc(NC(=O)Cn2nc(C)n3cccc3c2=O)c(C)c1 9.55%
Cc1ccc2nc(NCc3ccc(F)cc3)c3nncn3c2c1 -6.17%
CCCCNC(=O)C1CCC(CNS(=O)(=O)c2ccc(NC(C)=O)cc2)CC1 (centres undefined) 0.111%
COc1ccc(-c2nc3c(c(SCC(=O)N(C)c4ccccc4)n2)Cc2cc(C)ccc2O3)cc1 1.51%
COc1ccc2ncc3c(-c4ccc(C)c(C)c4)nn(CC(=O)NC4CCCC4)c3c2c1 -1.97%
CCc1ccccc1NC(=O)CCc1c(C)nn(-c2ccc(N3CCOCC3)nn2)c1C 8.2%
CCc1ccc(CNCc2c(C(=O)O)n(Cc3ccc(F)cc3Cl)c3cc(OC)ccc23)cc1 15.6%
COc1ccc2[nH]cc(S(=O)(=O)c3ccc(C)c(C)c3)c(=O)c2c1 1.88%

outcome, inactive:
CCOC(=O)Cn1c(=O)oc2cc(S(=O)(=O)N3CCN(c4ccc(C(C)=O)cc4)CC3)ccc21
COc1ccc(CCNC(=O)CCn2c(=O)c3ccccc3n(CC(=O)Nc3ccc(C)cc3C)c2=O)cc1OC
CCOc1ccc(-c2nc(Cn3c(=O)cc(C)c4c(C)nn(-c5ccc(C)cc5)c43)c(C)o2)cc1
O=C(Nc1ccc(Cl)cc1)N1CCN(c2ccc3nnc(-c4ccccc4)n3n2)CC1
Cc1cc(C)cc(NC(=O)CSc2nnc(-c3cc4occc4n3C)n2-c2ccccc2C)c1
COC(=O)c1ccc(OC)c(CN2C(=O)N(c3ccc(C(C)=O)cc3)S(=O)(=O)c3ccccc32)c1
O=C(CN1C(=O)COc2ccc(S(=O)(=O)N3CCCCC3)cc21)NCc1ccc(Cl)cc1
CN(C(=O)c1cc2c(s1)-c1ccc(Cl)cc1SC2)c1cccc(C(F)(F)F)c1
CC(=O)c1ccc(NC(=O)c2ccc(-c3nc(CSc4ccccc4)c(C)o3)cc2)cc1
COc1cc(NC(=O)c2cc(C)nc3c2c(C)nn3-c2ccccc2Cl)cc(OC)c1
COC(=O)c1cc(NC(=O)c2nn(C)c3c2COc2ccccc2-3)cc(C(=O)OC)c1
Nc1c(C(=O)Nc2ccc(F)c(F)c2)sc2nc(-c3ccncc3)ccc12
CCOC(=O)c1ccc(NC(=O)Nc2cc3c(cc2N2CCCC2)n(C)c(=O)n3C)cc1
O=C(Nc1ccc2nc(SCC(=O)N3CCCc4ccccc43)sc2c1)c1ccccc1
COc1ccccc1NC(=O)C1=C(C)Nc2nc(SCc3ccccc3F)nn2C1c1cccs1 (centres undefined)
Cc1nc2ccn(Cc3ccco3)c(=O)c2cc1C(=O)N1CCN(c2ccccc2)CC1
Cc1ccc(C2c3[nH]c4ccccc4c3CCN2C(=O)CCC2CCCC2)cc1 (centres undefined)
O=C(Nc1cccc(C(=O)OCc2cc(=O)n3c4c(sc3n2)CCCC4)c1)c1ccccc1
CCCNC(=O)CCSc1nc(-c2ccc3c(c2)OCO3)cc(C(F)(F)F)n1
COc1cc(CCC(=O)NCc2ccc3c(c2)CCN3C(=O)c2ccc(F)cc2)cc(OC)c1OC
Cc1nc(-c2ccc(S(=O)(=O)NCc3ccc(N(C)C)cc3)cc2)co1
CCc1nn2c(=O)cc(COC(=O)c3ccccc3NC(=O)C3CCCCC3)nc2s1
COc1cc2ccccc2cc1C(=O)N1CCN(c2nc3ccc(F)cc3s2)CC1
O=C(c1ccc(F)cc1)n1nc(-c2ccccc2)nc1NCc1ccc(F)cc1
COc1ccccc1-c1noc(-c2ccc(NC(C)C)c([N+](=O)[O-])c2)n1
COc1ccc(Cn2c(=O)[nH]c3cc(C(=O)N4CCN(c5cc(Cl)ccc5C)CC4)ccc3c2=O)cc1
